Paper PMC4336329 (PLoS ONE, 2015)
Screen size: about 310,000 compounds; about 2,200 (0.71%) showed an effect of 50% or more. Effects have a minus sign here. Some of the results follow.

molecular target: human ether-à-go-go-related gene (hERG) potassium channel (human, UniProt Q12809); test: primary screen, population patch clamp on CHO cells stably expressing hERG
Sequence (Q12809 whole entry, looked up): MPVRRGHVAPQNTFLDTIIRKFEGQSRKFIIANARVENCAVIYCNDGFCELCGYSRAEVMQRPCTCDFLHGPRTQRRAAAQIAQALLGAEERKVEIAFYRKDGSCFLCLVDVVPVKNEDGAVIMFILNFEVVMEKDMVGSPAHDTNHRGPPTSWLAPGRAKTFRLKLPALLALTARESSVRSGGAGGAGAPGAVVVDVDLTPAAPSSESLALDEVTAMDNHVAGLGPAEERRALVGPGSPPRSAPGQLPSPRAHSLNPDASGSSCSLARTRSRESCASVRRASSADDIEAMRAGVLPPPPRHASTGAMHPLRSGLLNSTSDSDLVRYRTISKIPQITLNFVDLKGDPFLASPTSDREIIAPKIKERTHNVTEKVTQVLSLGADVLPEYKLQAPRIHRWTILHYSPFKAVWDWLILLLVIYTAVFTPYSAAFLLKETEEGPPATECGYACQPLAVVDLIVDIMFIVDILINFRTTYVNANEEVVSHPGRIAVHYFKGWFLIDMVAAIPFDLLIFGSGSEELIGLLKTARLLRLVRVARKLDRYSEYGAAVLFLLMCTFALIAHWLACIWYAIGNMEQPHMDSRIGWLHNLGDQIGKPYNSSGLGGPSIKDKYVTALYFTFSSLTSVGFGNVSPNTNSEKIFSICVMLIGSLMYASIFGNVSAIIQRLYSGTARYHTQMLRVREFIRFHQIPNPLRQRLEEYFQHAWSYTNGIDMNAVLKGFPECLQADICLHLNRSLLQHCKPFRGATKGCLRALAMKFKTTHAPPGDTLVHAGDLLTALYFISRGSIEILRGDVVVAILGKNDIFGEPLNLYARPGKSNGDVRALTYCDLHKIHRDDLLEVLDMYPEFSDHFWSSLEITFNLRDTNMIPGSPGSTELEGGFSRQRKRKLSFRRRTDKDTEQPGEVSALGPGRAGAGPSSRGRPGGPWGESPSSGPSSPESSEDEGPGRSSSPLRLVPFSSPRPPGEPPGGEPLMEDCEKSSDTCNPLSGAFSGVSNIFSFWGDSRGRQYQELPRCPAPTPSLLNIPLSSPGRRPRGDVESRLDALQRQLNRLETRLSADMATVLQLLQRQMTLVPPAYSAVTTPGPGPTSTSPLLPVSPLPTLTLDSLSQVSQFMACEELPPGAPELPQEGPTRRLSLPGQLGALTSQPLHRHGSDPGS

| SMILES | hERG current change (%, negative = inhibition) at 1uM [%] |
| --- | --- |
| O=C(CN1C(=O)NC2(CCCc3ccccc32)C1=O)NCc1ccc(Cl)cc1Cl (stereo not drawn) | -3.31 |
| O=C(CN1C(=O)S/C(=C\C=C\c2ccccc2)C1=O)Nc1ccc(C(=O)O)cc1 | 14.1 |
| CCOc1ccc(CNC(=O)C2CCCN(c3nnc(C)c4c(C)n(-c5ccccc5)nc34)C2)cc1 (stereo not drawn) | 8.87 |
| CC(C)CN1CCC(=O)N([C@H](COc2ccccc2)c2ccccc2)CC1 | -64.3 |
| C=CCn1c(=O)c2ccccc2n2c(SCC(=O)NCc3cccs3)nnc12 | 8.58 |
| COCc1ccc(C(=O)N(C)C2CCCN(Cc3ccccc3F)C2)o1 (stereo not drawn) | -1.22 |
| COc1ccc2ccccc2c1CN1CCN(Cc2ccccc2)CC1 | 5.42 |
| Cc1ccc(NC(=O)C2CCN(S(C)(=O)=O)CC2)cc1Cl | 15 |
| COc1cc(=O)oc(-c2ccccc2)c1C(C)=O | 15.7 |
| COc1cnc(-c2ccccc2)nc1OC | 20.2 |
| CCCCOc1c(Cl)cc(CNC(C)(C)CO)cc1OCC | 10.3 |
| CCC(C)(C)n1nnnc1C(c1cccc(C#N)c1)N1CCN(c2cc(C)ccc2C)CC1 (stereo not drawn) | 12.9 |
| CC(=O)N1CCN(C(=O)c2ccc(NS(=O)(=O)c3ccc4c(c3)OCCO4)cc2)CC1 | 13 |
| Cn1c(N)c(C(=O)COC(=O)CNS(=O)(=O)c2ccc(Cl)c(Cl)c2)c(=O)n(C)c1=O | 1.58 |
| Cc1ccc(-n2nc3c(c2NC(=O)c2ccc4c(c2)OCO4)CS(=O)(=O)C3)c(C)c1 | 9.43 |
| O=C(COc1ccc(S(=O)(=O)N2CCCC2)cc1)NCc1ccco1 | 12.6 |
| N/C(Cc1ccc(Cl)cc1Cl)=N\OC(=O)Cc1ccccc1 | 11.2 |
| CC(C)CNC1CS(=O)(=O)CC1O.Cl (stereo not drawn) | 6.27 |
| O=S(=O)(c1ccccc1F)N1CCC(c2nc3ccccc3[nH]2)CC1 | 2.11 |
| CC1=Nn2c(nc(-c3ccccc3)c2-c2ccccc2)NC(=O)C1Br (stereo not drawn) | 7.45 |
| Cc1ccc(NC(=S)N2CCCCC2)cc1C | 14.9 |
| COc1cccc(CNS(=O)(=O)/C=C/c2ccc3c(c2)OCO3)c1 | 10.1 |

| SMILES | hERG current change (%, negative = inhibition) at 1uM [%] |
| --- | --- |
| NC(=O)c1c(NC(=O)c2ccc(N3C(=O)CCC3=O)cc2)sc2c1CCCC2 | 2.93 |
| CC(=O)c1ccc(Sc2ccccc2)c([N+](=O)[O-])c1 | 5.05 |
| O=C(CSc1nnc(-c2ccccc2)o1)Oc1ccc(Br)cc1 | -0.433 |
| Nc1c(C(=O)N/N=C/c2ccccc2Cl)oc2nc(-c3ccccc3)cc(-c3ccco3)c12 | 19.3 |
| COc1ccccc1CCNC(=O)C1CCN(c2nnc(C)c3c(C)n(-c4ccc(C)cc4)nc23)CC1 | 14.7 |
| CC(OC(=O)c1ccc(S(=O)(=O)NCc2ccco2)cc1)C(=O)Nc1ccc(Cl)cn1 (stereo not drawn) | -7.78 |
| Cc1c(NS(=O)(=O)c2ccc3c(c2)CCN3C(=O)C2CC2)c(=O)n(-c2ccccc2)n1C | -0.286 |
| O=C(C[n+]1ccccc1)N/N=C/c1cccs1.[Cl-] | 1.9 |
| CCc1cccc(C)c1N1C(=O)CN(Cc2ccccc2)C1=S | 2.53 |
| COc1ccc(CCNC(=O)c2ccc(CS(=O)(=O)c3ccc(Br)cc3)o2)cc1OC | -0.871 |
| COCCn1c(SCC(=O)NC2CCCC2)nc2c(c1=O)SCC2 | 12.7 |
| CSc1ccccc1NC(=O)CN(C)CC(=O)Nc1ccccc1N1CCOCC1 | 23.2 |
| O=C(CN1C(=O)NC2(CCCC2)C1=O)Nc1ccc(Cl)cc1F | 14.7 |
| CCCCN(C(=O)C1=NN(c2ccccc2)C(=O)CC1)c1c(N)n(CC(C)C)c(=O)[nH]c1=O | 5.19 |
| O=C(OC1CCCCC1=O)c1cc(S(=O)(=O)N2CCOCC2)ccc1F (stereo not drawn) | 13.7 |
| COc1ccc2c(c1)c1ncn(CCCN3CCOCC3)c(=O)c1n2C | -8.9 |
| CCOC(=O)C1=C(COC(=O)/C=C/c2cc(Br)ccc2F)NC(=O)NC1C (stereo not drawn) | 7.15 |
| O=C(CN1C(=O)NC2(CCCC2)C1=O)OCc1ccccc1 | 6.03 |
| CCNC(=O)OCC12CC3CC(CC(C3)C1)C2 | 4.37 |
| CC(C)Oc1ccc(C(=O)NCC(=O)N2CCN(S(=O)(=O)/C=C/c3ccccc3)CC2)cc1 | -40.6 |
| CC(C)CNS(=O)(=O)c1ccc(CCC(=O)NCCC2=CCCCC2)cc1 | 12.6 |
| CCOc1ccc(Cn2cc(F)c(=O)[nH]c2=O)cc1 | 13.4 |

| SMILES | hERG current change (%, negative = inhibition) at 1uM [%] |
| --- | --- |
| CC1CCCN(c2ccc3nncn3n2)C1 (stereo not drawn) | 10.7 |
| Cc1nc(NCCN)c(C#N)c2c1COC(C)(C)C2 | 14.3 |
| O=S(=O)(Nc1ccccc1C(F)(F)F)c1ccc(-c2ccccn2)s1 | 4.24 |
| COc1ccc(-n2c3c(c(=O)[nH]c2=O)C(NC(C)=O)(C(F)(F)F)C(=O)N3)cc1 (stereo not drawn) | 3.37 |
| O=C(COc1cccc(NC(=O)c2ccccc2)c1)c1ccccc1 | -0.784 |
| Cc1ccc(-n2c(C)cc(C)c(C#N)c2=O)cc1 | 20.6 |
| Cc1ccc(NC(=O)N2CCC(NC(=O)c3ccccc3C)CC2)cc1 | 8.79 |
| CC(C)n1c(SCC(=O)N2CCN(C)CC2)nc2c1c(=O)n(C)c(=O)n2C | 10.2 |
| O=C(Nc1ccc(F)cc1F)C1CCN(c2ncnc3c2sc2cccc(F)c23)CC1 | 14.9 |
| NS(=O)(=O)c1ccc(CCNC(=O)C(=O)NCC2OCCN2S(=O)(=O)c2cc(F)ccc2F)cc1 (stereo not drawn) | 15 |
| CC(=O)Nc1ccc(S(=O)(=O)NC2CC(=O)N(c3ccc(C)cc3)C2)cc1 (stereo not drawn) | 12.1 |
| CCC(C)n1c(SCC(=O)NC(=O)c2cccn2C)nc2ccccc2c1=O (stereo not drawn) | 5.1 |
| O=C1/C(=C/c2cccc([N+](=O)[O-])c2)N2CCC1CC2 | 6.93 |
| CCOc1ccc(C2CC(=O)NC3=C2C(=O)CCC3)cc1 (stereo not drawn) | 9.68 |
| O=C(Cn1nc(C(=O)O)c2ccccc2c1=O)c1c[nH]c2ccccc12 | -10.4 |
| Cn1c(SCC(=O)c2ccc(O)cc2O)nnc1-c1ccccc1 | 14.2 |
| C=CCN(C(=O)c1csnn1)C(C(=O)NC(C)(C)C)c1ccncc1 (stereo not drawn) | 20.2 |
| Cc1nn(C)c(C)c1CCC(=O)O | 12.5 |
| Cc1cnn(Cc2ccccc2)c1N | 17.9 |
| COc1ccc(OCC(=O)NCCCN2CCOCC2)cc1 | 10.4 |
| COc1ccc(S(=O)(=O)N2CCCCCC2)cc1NC(=O)CCCOc1ccccc1 | 6.66 |
| Cc1csc(NC(=O)c2cccc(C)c2C)n1 | 12.4 |

| SMILES | hERG current change (%, negative = inhibition) at 1uM [%] |
| --- | --- |
| COc1ccc(/C=C(/C#N)C(=O)Nc2cccc(C)c2C)cc1C(=O)O | 13.2 |
| COC(=O)c1cccc(N(C(=O)CNC(=O)c2ccco2)C(C(=O)NC2CCCC2)c2ccco2)c1 (stereo not drawn) | 13.1 |
| COc1ccc(-c2ccc(=O)n(Cc3cc(=O)n4ccccc4n3)n2)cc1 | -1.7 |
| NC(=O)[C@@H]1CCCNc2c(F)cc([N+](=O)[O-])cc2C(=O)N[C@@H](CCC(=O)O)C(=O)N[C@@H](CO)C(=O)N1 | 6.41 |
| C/C(CC(=O)Nc1ccc(Cl)cc1Cl)=N\NC(=O)c1cnccn1 | 12 |
| CC(C)N1CCN(Cc2cccc([N+](=O)[O-])c2)CC1 | 9.88 |
| CSc1nnc(-c2ccncc2)n1CCCN1CCCC1=O | 12.2 |
| O=C(CCN1CCOCC1)NCC(=O)Nc1ccc(Br)cc1C(=O)c1ccccc1 | -17.6 |
| Cc1cnnn1-c1cccc([N+](=O)[O-])c1 | -2.85 |
| O=C(NC1(C(F)(F)F)NC(=O)N(Cc2cccnc2)C1=O)c1ccncc1 (stereo not drawn) | 18.1 |
| COc1ccccc1N/C(=N/S(=O)(=O)c1ccc(C)cc1)c1ccc(Cl)cc1 | -15.5 |
| CCOC(=O)c1ccccc1NC(=O)COC(=O)CCNS(=O)(=O)c1ccccc1 | 11.2 |
| COc1cc(/C=C/C(=O)c2ccc3c(c2)OCO3)cc(Cl)c1O | 5.7 |
| COc1ccc([N+](=O)[O-])cc1NC(=O)CN(C)S(=O)(=O)c1ccccc1 | -13.8 |
| CCOc1ccc(N2C(=O)CC(N3CCN(c4ccc(C(=O)c5ccncc5)cc4)CC3)C2=O)cc1 (stereo not drawn) | -4.77 |
| Cc1ccc(-n2nc(-c3ccco3)cc2C(=O)O)cc1 | 10.2 |
| CN(C)c1ccc(C(=O)OCC(=O)NCCNC(=O)COC(=O)c2ccc(N(C)C)cc2)cc1 | 8.13 |
| CN1CCCC(OC(=O)c2cc(Cl)ccc2Cl)C1 (stereo not drawn) | 9.58 |
| O=C(NCc1cccnc1)C(=O)N/N=C/c1ccccc1[N+](=O)[O-] | -7.87 |
| COCCNC(=O)C(=O)N/N=C/c1ccc(C(=O)OC)cc1 | 15.7 |
| O=C(NCCSCc1ccco1)Nc1ccccc1 | 18.6 |
